From PubChem BioAssay AID504339 (National Center for Advancing Translational Sciences (NCATS), 2011)
About 17,000 (4.4%) of roughly 390,000 compounds were called active. The shares of active, inactive and inconclusive entries below differ from those in the screen. Calls follow the shape of the dose curve; as a rule, active = well fitted inhibition curve with a large enough effect; inconclusive = small, poorly fitted or top-dose-only effect; inactive = no such curve, though single readings can be large or run the other way. Where the call is inconclusive, the potency comes from a doubtful curve fit.

Biological target: Lysine-specific demethylase 4A (Homo sapiens) (UniProt O75164)
Assay: qHTS Assay for Inhibitors of JMJD2A-Tudor Domain; also: nearly all actives have a fitted effect of over 50% in size
Details: AlphaScreen JMJD2A-Tudor / H3K4me3 peptide binding; series mostly up to 114 µM
Potency is read from the fitted curve at half-maximal effect; tags tell the direction and shape of the fitted curve.

UniProt O75164, sequence (O75164 whole entry, looked up, the tested form may be a part): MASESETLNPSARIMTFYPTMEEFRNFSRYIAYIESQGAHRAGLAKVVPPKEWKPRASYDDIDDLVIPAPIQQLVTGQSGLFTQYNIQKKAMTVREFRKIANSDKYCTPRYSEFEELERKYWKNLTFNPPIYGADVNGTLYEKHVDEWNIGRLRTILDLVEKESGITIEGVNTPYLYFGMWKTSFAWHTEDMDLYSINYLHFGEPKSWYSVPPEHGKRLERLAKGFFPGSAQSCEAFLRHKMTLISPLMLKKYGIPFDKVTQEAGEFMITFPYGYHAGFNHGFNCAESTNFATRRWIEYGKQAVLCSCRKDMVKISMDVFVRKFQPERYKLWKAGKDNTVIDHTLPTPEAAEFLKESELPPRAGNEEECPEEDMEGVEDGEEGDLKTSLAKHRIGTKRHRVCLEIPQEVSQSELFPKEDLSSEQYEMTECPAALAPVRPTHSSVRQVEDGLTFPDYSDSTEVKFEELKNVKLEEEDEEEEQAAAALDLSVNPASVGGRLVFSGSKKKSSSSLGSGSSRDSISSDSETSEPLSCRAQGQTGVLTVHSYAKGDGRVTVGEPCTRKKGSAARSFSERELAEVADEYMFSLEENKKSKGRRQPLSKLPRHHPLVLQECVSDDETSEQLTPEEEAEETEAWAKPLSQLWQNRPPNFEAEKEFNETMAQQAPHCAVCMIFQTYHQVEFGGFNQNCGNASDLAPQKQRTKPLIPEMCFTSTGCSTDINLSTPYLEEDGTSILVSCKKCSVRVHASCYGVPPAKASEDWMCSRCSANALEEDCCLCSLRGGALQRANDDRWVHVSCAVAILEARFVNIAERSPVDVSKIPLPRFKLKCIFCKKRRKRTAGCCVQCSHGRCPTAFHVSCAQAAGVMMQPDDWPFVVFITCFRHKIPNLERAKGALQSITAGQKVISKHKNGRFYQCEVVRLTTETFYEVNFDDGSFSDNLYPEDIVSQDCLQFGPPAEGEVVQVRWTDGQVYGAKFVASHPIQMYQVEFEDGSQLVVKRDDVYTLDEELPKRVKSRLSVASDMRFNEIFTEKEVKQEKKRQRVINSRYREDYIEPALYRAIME

SMILES	Potency
O=C(O)c1ccc(NC(=O)c2ccccc2NC(=O)c2cccc(Br)c2)cc1	inconclusive: 11.2 µM [inhibitor, full curve, poor fit]
Cc1ccc(NC(=O)CN2C=NS(=O)(=O)c3ccccc32)c(C)c1	inactive
CCN1CCN(CCNC(=O)c2ccc(/C=C3/Sc4ccccc4N(Cc4cccc(Cl)c4)C3=O)cc2)CC1	active: 22.4 µM
Cc1occc1-c1nnc(SCC(=O)Nc2ccccc2)n1Cc1ccccc1	inconclusive: 63.1 µM [inhibitor, partial curve]
COC(=O)[C@@]1(Cc2ccc(F)cc2)[C@H]2c3cc(C(=O)N4CCCC4)n(CCc4ccccn4)c3C[C@H]2CN1C(=O)c1ccccc1	inconclusive: 2.82 µM [inhibitor, full curve, poor fit]
N#Cc1nc(-c2ccco2)oc1N1CCN(c2cccc(Cl)c2)CC1	inconclusive: 11.2 µM [inhibitor, full curve]
Cc1ccc(CNC(=O)c2ccc(F)c(S(=O)(=O)N3CCOCC3)c2)cc1	inactive
Brc1ccc(C2NCCS2)cc1 (centres undefined)	inactive
CCN1C(=O)S/C(=C/c2c(OCc3ccc(C(=O)O)cc3)ccc3ccccc23)C1=O	inconclusive: 35.5 µM [inhibitor, partial curve]
CCNC(=O)/C(=C\C=C\c1ccccc1)NC(=O)c1ccc(Br)o1	inactive
O=[N+]([O-])c1cccnc1Oc1cccnc1	inconclusive: 89.1 µM [inhibitor, single point]
O=C(O)C(Cc1ccccc1)N1C(=O)/C(=C/c2cccnc2)SC1=S (centres undefined)	active: 15.8 µM
Cc1ccccc1N=C1NC(=O)/C(=C/c2cccnc2)S1	inactive
O=C(NC1CC1)C1=COCCO1	inconclusive: 79.4 µM [inhibitor, partial curve]
CCCn1c(C)cc(/C=C(\C#N)C(=O)OCC(=O)Nc2cc(OC)c(OC)c(OC)c2)c1C	inconclusive: 79.4 µM [inhibitor, partial curve]
O=C(CCNC(=O)c1ccccc1Cl)Nc1nc(-c2ccc3ccccc3c2)cs1	inconclusive: 44.7 µM [inhibitor, partial curve]
O=C(O)c1ccccc1NC(=O)c1ccccc1Nc1ccccc1	inconclusive: 44.7 µM [inhibitor, partial curve]
CCOC(=O)c1cc(C)nc(Sc2ccc(C)cc2)c1C#N	inactive
CCCCOc1ccc(CN2CCC(O)CC2)cc1	active: 2.82 µM
O=[N+]([O-])c1ccc2nc(SCc3cn4cc(Cl)ccc4n3)[nH]c2c1	inconclusive: 44.7 µM [inhibitor, full curve]
Cc1c(C)c2cc(Cl)c(OC(C)C(=O)NCCN3CCOCC3)cc2oc1=O (centres undefined)	inconclusive: 14.1 µM [inhibitor, partial curve, poor fit]
Cc1ccsc1/C=N/Nc1nc2ccccc2[nH]1	inconclusive: 50.1 µM [inhibitor, partial curve]

SMILES	Potency
COC(=O)COc1ccc2cc(-c3ccccc3)c(=O)oc2c1	inconclusive: 100 µM [inhibitor, single point]
Cc1ccc(NC(=O)Nc2nnc(SCC(=O)N3CCC(C)CC3)s2)cc1	inactive
C=CCn1c(=O)c(C(=O)NCCNCC)c(O)c2ccccc21	inactive
O=C(NCC1CCCO1)C(c1ccc(F)cc1)N(CCCN1CCOCC1)C(=O)c1ccc(-c2ccccc2)[nH]1 (centres undefined)	inactive
CCOC(=O)c1cnc2c(ccc3ccccc32)c1Nc1ccc(OC)c(OC)c1	inconclusive: 14.1 µM [inhibitor, partial curve]
COc1ccc(S(=O)(=O)NNC(=O)C23CC4CC(CC(C4)C2)C3)cc1	inactive
O=[N+]([O-])c1ccc(N2CCN(CCOCCO)CC2)c([N+](=O)[O-])c1	active: 7.94 µM
C=CCc1cccc(/C=N/c2ncn[nH]2)c1O	inactive
Cc1ccc(-c2ccc(/C=N/n3cnnc3)o2)cc1Cl	inconclusive: 79.4 µM [inhibitor, partial curve]
CCN1CCN(c2cc(C)c3cc(NC(=O)/C=C/c4cccc(Cl)c4)ccc3n2)CC1	active: 31.6 µM
COc1ccc(C(=O)NCCn2cc(SCC(=O)NCc3ccco3)c3ccccc32)cc1	inconclusive: 7.08 µM [inhibitor, single point]
CCOC(=O)c1c(-c2ccc(-c3ccccc3)cc2)csc1NC(=O)C1C2CCC(O2)C1C(=O)O (centres undefined)	inactive
CC(C)=CCc1c(O)cc(O)c2c(=O)c(O[C@@H]3O[C@@H](C)[C@H](O)[C@@H](O)[C@H]3O)c(-c3ccc(O)cc3)oc12	inconclusive: 50.1 µM [inhibitor, partial curve, poor fit]
Nc1nnnn1/N=C/c1cccs1	inactive
CCOC(=O)c1oc2ccc(CNC3CCCCC3)c(Cl)c2c1C	active: 3.98 µM
CC(C)CCNC(=S)Nc1ccc([N+](=O)[O-])cc1	inconclusive: 31.6 µM [inhibitor, single point]
O=C(O)/C(=C/c1ccco1)NC(=O)c1ccccc1	inconclusive: 63.1 µM [inhibitor, single point]
OC[C@H](O)[C@H](O)[C@@H](O)[C@@H](O)[C@@H]1SC(c2ccccc2)=NN1c1ccccc1	inconclusive: 15.8 µM [inhibitor, partial curve]
N#CCC(=O)Nc1ccc(C(=O)OC(C(=O)Nc2ccc([N+](=O)[O-])cc2Br)c2ccccc2)cc1 (centres undefined)	inconclusive: 50.1 µM [inhibitor, partial curve]
COc1ccc(-n2cc(C(=O)NC(C)c3ccccc3)c3ccccc3c2=O)cc1 (centres undefined)	inconclusive: 50.1 µM [inhibitor, partial curve]
CC(NC(=O)c1ccc(N(C)C)c([N+](=O)[O-])c1)c1ccc(-n2ccnc2)cc1 (centres undefined)	inconclusive: 56.2 µM [inhibitor, partial curve, poor fit]
COC(=O)C1=C(C(=O)OC)[C@@H]2N(C)c3ccccc3[C@@]23C[C@@H](C(=O)OC)N(C(=O)COCc2ccccc2)C3=N1	inconclusive: 39.8 µM [inhibitor, partial curve]
